Data as given in patent publication US7652050B2, “Methods for increasing the survival of aquatic animals infected with an aquatic virus” (Laboratorio de Siagnóstico GAM S.A, priority 2001, dated 2010).

Legend:
IPNV strain VR-299 = assay: Virus plaque inhibition assay; type: cell-based, infectious pancreatic necrosis virus (IPNV); conditions: CHSE-214 cells, 3 days at 15° C., N.I.= Not inhibitory; for EC50: Infectious pancreatic necrosis virus, 72 h, read-out: EC50, effective antiviral concentration required to inhibit IPNV plaque formation by 50%
IPNV = assay: Titration of viral progeny from infected CHSE-214 cells; type: cell-based, infectious pancreatic necrosis virus (IPNV); conditions: 4 μg/ml acivicin; without compound 3.7×10^8 pfu/ml
CHSE-214 cells [1] = assay: Cytotoxic assay, cell viability by trypan blue exclusion; conditions: 15° C., three days
CHSE-214 cells [2] = assay: Cellular DNA synthesis, [methyl 3H] thymidine incorporation; conditions: CHSE-214, read-out: IC50, inhibitory concentration required to reduce [methyl 3H] thymidine incorporation by 50%, CHSE-214 cells, 20 hours at 15° C.

SMILES | EC50 (IPNV strain VR-299) [µg/mL] | EC100, effective antiviral concentration required to inhibit IPNV plaque formation by 100% (IPNV strain VR-299) | CC50, cytotoxic concentration required to reduce cell viability by 50% (CHSE-214 cells [1]) [µg/mL] | also measured
Nc1ncnc2c1ncn2CC(O)C(=O)O (centres unmarked) [AHPA, 3-adenine-9-yl-2-hydroxypropanoic acid] | 30 (≈ 134 µM) | – | – | –
N[C@H](C(=O)O)[C@@H]1CC(Cl)=NO1 [Acivicin, L (alpha S, 5S)-alpha-amino-3-chloro-4.5-dihydro-5-isoxazolacetic acid] | 4 (≈ 22.4 µM) | 7 µg/mL | >100 | Titer of viral samples from cells infected in the presence of the compound (IPNV): 4.3×10^4 pfu/ml
Nc1nc2c(ncn2COCCO)c(=O)[nH]1 [Acyclovir, 9-(2-hydroxyethoxymethyl) guanine] | – | N.I. | – | –
Nc1ncnc2c1ncn2C[C@H](O)CO [DHPA, (S)-9-(2.3-dihydroxypropyl) adenine] | – | – | 100 (≈ 478 µM) | EC50, effective antiviral concentration required to inhibit IPNV plaque formation by 50% (IPNV strain VR-299): 50 µg/mL (≈ 239 µM)
COc1c(C)c2c(c(O)c1C/C=C(\C)CCC(=O)O)C(=O)OC2 [Myconhenolic Acid, 6-(4-hydroxy-6-methoxy-7-methyl-3-oxo-5-phthalanyl)-4-methyl-4-hexenoic acid] | – | – | – | IC50 (CHSE-214 cells [2]): 1.8 µg/mL (≈ 5.62 µM)
NC(=O)c1ncn([C@@H]2O[C@H](CO)[C@@H](O)[C@H]2O)n1 [Ribavirin] | 0.5 (≈ 2.05 µM) | 1 µg/mL | – | –

≈ marks a conversion by molar mass, not a printed value.
